{"source": "paper PMC4336329", "about": "(PLoS ONE, 2015)", "note": "Screen size: about 310,000 compounds; about 2,200 (0.71%) showed an effect of 50% or more. The effect is printed as a negative number. The list shows a part of the results.", "data": [{"target": "human ether-à-go-go-related gene (hERG) potassium channel (human, UniProt Q12809)", "sequence (Q12809 whole entry, looked up)": "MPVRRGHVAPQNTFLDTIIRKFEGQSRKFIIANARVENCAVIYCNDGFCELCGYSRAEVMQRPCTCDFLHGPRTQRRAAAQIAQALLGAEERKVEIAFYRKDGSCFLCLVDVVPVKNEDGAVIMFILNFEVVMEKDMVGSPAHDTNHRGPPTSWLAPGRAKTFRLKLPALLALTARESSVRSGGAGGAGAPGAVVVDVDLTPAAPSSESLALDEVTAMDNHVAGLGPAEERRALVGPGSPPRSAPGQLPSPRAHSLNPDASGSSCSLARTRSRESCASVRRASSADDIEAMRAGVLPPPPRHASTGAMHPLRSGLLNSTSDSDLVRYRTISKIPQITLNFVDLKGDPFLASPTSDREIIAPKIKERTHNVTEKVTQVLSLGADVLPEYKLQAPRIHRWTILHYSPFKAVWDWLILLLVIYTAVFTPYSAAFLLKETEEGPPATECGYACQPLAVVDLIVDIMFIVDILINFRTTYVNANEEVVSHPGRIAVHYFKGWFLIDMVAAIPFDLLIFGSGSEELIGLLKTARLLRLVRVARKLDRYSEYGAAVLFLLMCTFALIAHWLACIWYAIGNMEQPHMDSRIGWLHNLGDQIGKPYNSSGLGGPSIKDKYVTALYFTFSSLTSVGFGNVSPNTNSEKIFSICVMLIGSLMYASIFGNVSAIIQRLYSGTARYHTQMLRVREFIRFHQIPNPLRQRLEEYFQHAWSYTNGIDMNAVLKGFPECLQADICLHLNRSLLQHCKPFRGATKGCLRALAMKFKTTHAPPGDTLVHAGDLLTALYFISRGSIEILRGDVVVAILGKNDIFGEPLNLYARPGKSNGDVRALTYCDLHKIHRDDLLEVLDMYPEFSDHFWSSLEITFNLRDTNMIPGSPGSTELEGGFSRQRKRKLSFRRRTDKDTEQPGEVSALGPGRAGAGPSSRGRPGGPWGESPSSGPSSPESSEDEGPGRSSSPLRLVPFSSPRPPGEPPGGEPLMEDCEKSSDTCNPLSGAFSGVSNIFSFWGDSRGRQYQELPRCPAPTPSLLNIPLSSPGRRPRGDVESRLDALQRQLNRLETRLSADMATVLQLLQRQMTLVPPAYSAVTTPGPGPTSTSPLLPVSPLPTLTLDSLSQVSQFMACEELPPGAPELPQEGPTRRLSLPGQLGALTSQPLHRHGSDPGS", "assay": "primary screen, population patch clamp on CHO cells stably expressing hERG", "units": {"hERG current change (%, negative = inhibition) at 1uM": "%"}, "values": [{"smiles": "CC(=O)N1N=C(c2cccnc2)CC1c1ccccc1O", "note": "(centres unmarked)", "hERG current change (%, negative = inhibition) at 1uM": 7.43}, {"smiles": "CCOC(=O)c1ccc(NC(=S)N(CCCN2CCCC2)Cc2cccs2)cc1", "hERG current change (%, negative = inhibition) at 1uM": -31.6}, {"smiles": "COc1ccc(OC)c(CNc2nc3ccccc3n2CCN2CCCCC2)c1", "hERG current change (%, negative = inhibition) at 1uM": -19.3}, {"smiles": "COc1cc2ccccc2cc1C(=O)N(CCN(C)C)c1nc2c(F)cccc2s1.Cl", "hERG current change (%, negative = inhibition) at 1uM": -1.04}, {"smiles": "O=C(Nc1ccc(OCC(F)(F)C(F)F)cc1)c1ccncc1", "hERG current change (%, negative = inhibition) at 1uM": 8.31}, {"smiles": "COCCCNC(=O)CSc1nc2sc(C(=O)OC)c(C)c2c(=O)n1N", "hERG current change (%, negative = inhibition) at 1uM": 4.18}, {"smiles": "O=C(CN1CCN(c2ccc(F)cc2)CC1)c1cccs1", "hERG current change (%, negative = inhibition) at 1uM": 7.21}, {"smiles": "COc1ccc(N=c2cc(-c3ccc(OC)cc3)oc3ccccc23)cc1", "hERG current change (%, negative = inhibition) at 1uM": 7.61}, {"smiles": "CCS(=O)(=O)N1CCC(C(=O)NCc2cc(OC)ccc2OC)CC1", "hERG current change (%, negative = inhibition) at 1uM": 4.01}, {"smiles": "Cc1nc(Oc2ccccc2)c2ccccc2n1", "hERG current change (%, negative = inhibition) at 1uM": 6.66}, {"smiles": "CN(C(=O)COC(=O)/C=C/c1ccc2c(c1)OCO2)c1c(N)n(Cc2ccccc2)c(=O)[nH]c1=O", "hERG current change (%, negative = inhibition) at 1uM": 4.69}, {"smiles": "O=C(CSCc1ccccc1Br)NNC(=S)NCc1ccco1", "hERG current change (%, negative = inhibition) at 1uM": -4.72}, {"smiles": "O=C(Nc1ccc(Cl)c(C(F)(F)F)c1)[C@@H]1CC=C[C@@H]2CCN(C3CCCCC3)C(=O)[C@@H]21", "hERG current change (%, negative = inhibition) at 1uM": 17.3}, {"smiles": "O=C(c1cc2c(s1)-c1ccccc1OC2)N1CCC2(CC1)OCCO2", "hERG current change (%, negative = inhibition) at 1uM": -11.3}, {"smiles": "CCOc1ccc(C(=O)Nc2ccncc2)cc1", "hERG current change (%, negative = inhibition) at 1uM": 4.89}, {"smiles": "COc1ccc(-c2c(C(=O)O)c(-c3ccccc3)cn2C)cc1", "hERG current change (%, negative = inhibition) at 1uM": 21.8}, {"smiles": "COCCN1C(=O)N[C@@H](CCc2ccccc2)[C@H](C(C)=O)[C@H]1C", "hERG current change (%, negative = inhibition) at 1uM": 9.23}, {"smiles": "NC(=O)CCCn1c(C(=O)c2ccc(Cl)cc2)c2ccc(C(F)(F)F)cc2[n+]1[O-]", "hERG current change (%, negative = inhibition) at 1uM": -80.1}, {"smiles": "CC(C)CN(CC(C)C)C(=O)c1cc(S(=O)(=O)N2CCCCC2)c[nH]1", "hERG current change (%, negative = inhibition) at 1uM": 16}, {"smiles": "COc1cccc(OCC(O)CN2CCN(c3ccc(F)cc3)CC2)c1.Cl", "note": "(centres unmarked)", "hERG current change (%, negative = inhibition) at 1uM": -17.1}, {"smiles": "CC(=O)c1cn(CC(=O)Nc2ccc(C)c(C)c2)c2ccccc12", "hERG current change (%, negative = inhibition) at 1uM": 17.8}, {"smiles": "CCOc1ccc(CN(C)CC(=O)Nc2cccc(C)c2)cc1OC", "hERG current change (%, negative = inhibition) at 1uM": -28.1}, {"smiles": "COc1ccc(C)cc1S(=O)(=O)N1CCCC(C(=O)NC2CC2)C1", "note": "(centres unmarked)", "hERG current change (%, negative = inhibition) at 1uM": 5.12}, {"smiles": "CC1(C)CCCN(Cc2c(O)ccc3c(=O)c(-c4nc5ccccc5s4)c(N)oc23)C1", "hERG current change (%, negative = inhibition) at 1uM": 15.4}, {"smiles": "O=C(N/N=C/c1cnc(N2CCCCC2)s1)c1ccc(C(F)(F)F)cc1", "hERG current change (%, negative = inhibition) at 1uM": 17.3}, {"smiles": "CC1CC(C)CN(C(=O)c2ccc(-c3ccc([N+](=O)[O-])cc3)o2)C1", "note": "(centres unmarked)", "hERG current change (%, negative = inhibition) at 1uM": -31}, {"smiles": "O=[N+]([O-])c1cc([N+](=O)[O-])c2cc(-c3cccnc3)[nH]c2c1", "hERG current change (%, negative = inhibition) at 1uM": 16}, {"smiles": "CCOC(=O)c1c(C)[nH]c(C(=O)C(C)OC(=O)c2cccc(OCc3c(C)noc3C)c2)c1C", "note": "(centres unmarked)", "hERG current change (%, negative = inhibition) at 1uM": 4.47}, {"smiles": "Cc1ccc(CCNC(=O)Cn2cccc2)cc1", "hERG current change (%, negative = inhibition) at 1uM": -5.29}, {"smiles": "CCOC(=O)CSc1cc(CS(=O)(=O)c2ccccc2)nc(-c2ccccc2)n1", "hERG current change (%, negative = inhibition) at 1uM": 8.36}, {"smiles": "COCCNC(=S)NC1CC2CCC(C1)N2Cc1ccccc1", "note": "(centres unmarked)", "hERG current change (%, negative = inhibition) at 1uM": 7.05}, {"smiles": "O=[N+]([O-])c1ccc(/C=N/Nc2ccccn2)cc1", "hERG current change (%, negative = inhibition) at 1uM": 12.1}, {"smiles": "CCOc1cccc2c1OC1(C)CC2NC(=O)N1c1ccc(OC)cc1", "note": "(centres unmarked)", "hERG current change (%, negative = inhibition) at 1uM": 4.54}, {"smiles": "O=C(Cn1cccc1)Nc1ccc(OC(F)(F)F)cc1", "hERG current change (%, negative = inhibition) at 1uM": 0.665}, {"smiles": "COc1cc(Cl)c(NS(=O)(=O)c2c(C(=O)N3CCCC3)c(C)n(C)c2C)c(OC)c1", "hERG current change (%, negative = inhibition) at 1uM": 10.3}, {"smiles": "O=C(Nc1cccc(F)c1)c1coc(=O)c(Br)c1", "hERG current change (%, negative = inhibition) at 1uM": 3.45}, {"smiles": "O=C(Nc1ccccc1N1CCOCC1)c1cccc2c(Br)cccc12", "hERG current change (%, negative = inhibition) at 1uM": 18.9}, {"smiles": "COc1ccc2[nH]c(C(=O)NCCN3CCOCC3)cc2c1", "hERG current change (%, negative = inhibition) at 1uM": 14.5}, {"smiles": "C=CCOc1ccc(CNCCc2ccc(S(N)(=O)=O)cc2)cc1.Cl", "hERG current change (%, negative = inhibition) at 1uM": -34}, {"smiles": "O=C(COc1ccc2ccccc2c1)NNC(=O)c1ccccc1", "hERG current change (%, negative = inhibition) at 1uM": 16.8}, {"smiles": "O=C(CCl)N1CCN(S(=O)(=O)Cc2ccccc2)CC1", "hERG current change (%, negative = inhibition) at 1uM": 6.47}, {"smiles": "Cc1ccc(O)c(NC(=S)NC(=O)C(C)C)c1", "hERG current change (%, negative = inhibition) at 1uM": 6.12}, {"smiles": "CCC(c1nnnn1Cc1ccco1)N1CCN(c2cc(Cl)ccc2C)CC1.Cl", "note": "(centres unmarked)", "hERG current change (%, negative = inhibition) at 1uM": 10.7}, {"smiles": "Cc1cc(C(=O)NCCc2ccccc2)c2cc(F)ccc2n1", "hERG current change (%, negative = inhibition) at 1uM": 9.22}]}]}
